Test results published in the supplement of paper PMC11741623.
Some of the results follow. Interaction screen of human proteins with wild-type SARS-CoV-2 proteins by split-DHFR complementation in yeast, 1 µg/mL methotrexate. Value = fitness of the pair (three or more lineages) minus that of the viral protein without a human partner, on a scale set by negative (0) and fused positive (1) controls, mean of up to three cultures; higher = more likely to interact. Active = false discovery rate below 0.05 (one-sided t-test) in at least one culture. Nearly all pairs are not hits, and differences among them are mostly noise (correlation between cultures about 0.3); most hits were seen in one culture only. Human sequences are the Swiss-Prot entries looked up by gene name; the clone may be another isoform. NSP2 values were corrected by the authors for a growth advantage. Listed are human proteins with a hit and a random twelfth of the others.

Experiments:
Assay in all cases: yeast fitness gain over the viral ORF with no human partner (scaled fitness); higher = more likely to interact
[1] = biological target: SARS-CoV-2 NSP12
Method: (§1)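 Split mouse DHFR complementation in pooled diploid yeast: human ORFeome clones carry one fragment and viral ORFs the other; barcoded lineages compete in 1 µg/mL methotrexate and fitness is read by barcode sequencing in up to three cultures.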

[2] = biological target: SARS-CoV-2 NSP13
Method: as §1

[3] = biological target: SARS-CoV-2 NSP2
Method: as §1

[4] = biological target: SARS-CoV-2 NSP5
Method: as §1

[5] = biological target: SARS-CoV-2 NSP8
Method: as §1

[6] = biological target: SARS-CoV-2 ORF10
Method: as §1

[7] = biological target: SARS-CoV-2 ORF3B
Method: as §1

[8] = biological target: SARS-CoV-2 ORF6
Method: as §1

[9] = biological target: SARS-CoV-2 ORF7A
Method: as §1

[10] = biological target: SARS-CoV-2 ORF8
Method: as §1

[11] = biological target: SARS-CoV-2 ORF9B
Method: as §1

[12] = biological target: SARS-CoV-2 S
Method: as §1

[13] = biological target: SARS-CoV-2 ORF3A
Method: as §1

[14] = biological target: SARS-CoV-2 ORF7B
Method: as §1

Measured: yeast fitness gain

B1: CLEC2D, Q9UHP7 (protein)
chain: MHDSNNVEKDITPSELPANPGCLHSKEHSIKATLIWRLFFLIMFLTIIVCGMVAALSAIRANCHQEPSVCLQAACPESWIGFQRKCFYFSDDTKNWTSSQRFCDSQDADLAQVESFQELNFLLRYKGPSDHWIGLSREQGQPWKWINGTEWTRQFPILGAGECAYLNDKGASSARHYTERKWICSKSDIHV
inactive: [1] -0.34 | [2] -0.0341 | [3] -0.0972 | [4] 0.00531 | [5] 0.0416 | [6] 0.105 | [7] 0.0283 | [8] -0.218 | [9] -0.0814 | [10] -0.0557 | [11] 0.0152 | [12] -0.0142

B2: SBDS, Q9Y3A5 (protein)
chain: MSIFTPTNQIRLTNVAVVRMKRAGKRFEIACYKNKVVGWRSGVEKDLDEVLQTHSVFVNVSKGQVAKKEDLISAFGTDDQTEICKQILTKGEVQVSDKERHTQLEQMFRDIATIVADKCVNPETKRPYTVILIERAMKDIHYSVKTNKSTKQQALEVIKQLKEKMKIERAHMRLRFILPVNEGKKLKEKLKPLIKVIESEDYGQQLEIVCLIDPGCFREIDELIKKETKGKGSLEVLNLKDVEEGDEKFE
inactive: [1] -0.257 | [6] 0.0836 | [7] -0.0245 | [8] 0.00843

B3: ZBTB48, P10074 (protein)
chain: MDGSFVQHSVRVLQELNKQREKGQYCDATLDVGGLVFKAHWSVLACCSHFFQSLYGDGSGGSVVLPAGFAEIFGLLLDFFYTGHLALTSGNRDQVLLAARELRVPEAVELCQSFKPKTSVGQAAGGQSGLGPPASQNVNSHVKEPAGLEEEEVSRTLGLVPRDQEPRGSHSPQRPQLHSPAQSEGPSSLCGKLKQALKPCPLEDKKPEDCKVPPRPLEAEGAQLQGGSNEWEVVVQVEDDGDGDYMSEPEAVLTRRKSNVIRKPCAAEPALSAGSLAAEPAENRKGTAVPVECPTCHKKFLSKYYLKVHNRKHTGEKPFECPKCGKCYFRKENLLEHEARNCMNRSEQVFTCSVCQETFRRRMELRVHMVSHTGEMPYKCSSCSQQFMQKKDLQSHMIKLHGAPKPHACPTCAKCFLSRTELQLHEAFKHRGEKLFVCEECGHRASSRNGLQMHIKAKHRNERPHVCEFCSHAFTQKANLNMHLRTHTGEKPFQCHLCGKTFRTQASLDKHNRTHTGERPFSCEFCEQRFTEKGPLLRHVASRHQEGRPHFCQICGKTFKAVEQLRVHVRRHKGVRKFECTECGYKFTRQAHLRRHMEIHDRVENYNPRQRKLRNLIIEDEKMVVVALQPPAELEVGSAEVIVESLAQGGLASQLPGQRLCAEESFTGPGVLEPSLIITAAVPEDCDT
inactive: [1] -0.153 | [2] 0.00711 | [3] -0.21 | [4] -0.359 | [7] -0.118 | [11] -0.0437

B4: ZKSCAN4, Q969J2 (protein)
chain: MAREPRKNAALDAQSAEDQTGLLTVKVEKEEASALTAEVRAPCSPARGPERSRQRFRGFRYPEAAGPREALSRLRELCGQWLQPEMHSKEQILELLVLEQFLTILPGNLQSWVREQHPESGEEVVVLLEYLERQLDEPAPQVPVGDQGQELLCCKMALLTQTQGSQSSQCQPMKALFKHESLGSQPLHDRVLQVPGLAQGGCCREDAMVASRLTPGSQGLLKMEDVALTLTPGWTQLDSSQVNLYRDEKQENHSSLVSLGGEIQTKSRDLPPVKKLPEKEHGKICHLREDIAQIPTHAEAGEQEGRLQRKQKNAIGSRRHYCHECGKSFAQSSGLTKHRRIHTGEKPYECEDCGKTFIGSSALVIHQRVHTGEKPYECEECGKVFSHSSNLIKHQRTHTGEKPYECDDCGKTFSQSCSLLEHHKIHTGEKPYQCNMCGKAFRRNSHLLRHQRIHGDKNVQNPEHGESWESQGRTESQWENTEAPVSYKCNECERSFTRNRSLIEHQKIHTGEKPYQCDTCGKGFTRTSYLVQHQRSHVGKKTLSQ
inactive: [1] -0.0944 | [2] -0.142 | [8] 0.0363

B5: FGL1, Q08830 (protein)
chain: MAKVFSFILVTTALTMGREISALEDCAQEQMRLRAQVRLLETRVKQQQVKIKQLLQENEVQFLDKGDENTVIDLGSKRQYADCSEIFNDGYKLSGFYKIKPLQSPAEFSVYCDMSDGGGWTVIQRRSDGSENFNRGWKDYENGFGNFVQKHGEYWLGNKNLHFLTTQEDYTLKIDLADFEKNSRYAQYKNFKVGDEKNFYELNIGEYSGTAGDSLAGNFHPEVQWWASHQRMKFSTWDRDHDNYEGNCAEEDQSGWWFNRCHSANLNGVYYSGPYTAKTDNGIVWYTWHGWWYSLKSVVMKIRPNDFIPNVI
inactive: [1] 0.0863 | [3] -0.183 | [13] -0.0215 | [14] 0.399 | [10] -0.0957 | [11] -0.0526
